In all, about 33,000 sequences were measured (“E-score (-0.5 to 0.5)”: median about -0.04, highest 2% from about 0.36 on). The list shows a part of the results.
Each sequence was assayed against T1, Hmlalpha2 (UniProt P0CY09) (assay: PBM E-score (8-mer binding enrichment) (E-score (-0.5 to 0.5)); higher = stronger / more preferred TF binding; most listed sequences are background and not binding sites). Settings: protein concentration: 200 nM; construct: GST-full length.
T1 sequence: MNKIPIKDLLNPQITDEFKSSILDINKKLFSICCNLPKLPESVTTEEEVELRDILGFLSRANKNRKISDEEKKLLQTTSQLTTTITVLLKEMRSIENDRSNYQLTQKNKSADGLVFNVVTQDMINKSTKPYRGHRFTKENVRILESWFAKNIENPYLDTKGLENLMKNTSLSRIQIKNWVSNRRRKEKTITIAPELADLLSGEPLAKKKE
Outline: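 PURExpress in vitro transcription/translation supplied GST-tagged yeast transcription factors, either full-length or DNA-binding domain. Applied at about 100-200 nM to universal all-10-mer Agilent arrays double-stranded by primer extension, the bound protein was detected with fluorescent anti-GST. E-scores, modified Wilcoxon-Mann-Whitney statistics, were given by the Universal PBM Analysis Suite to ungapped eight-base words pooled with their reverse complements after masliner normalisation.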

Sequence	PBM E-score
CACACGAA	0.233
CTTCTTTA	0.0914
ACCGCCAG	-0.123
GAAAGTAA	0.0885
AAGTGACG	0.0755
ACATCGGT	0.0951
AAGAGCAA	-0.258
CCCATAGA	-0.2
GTGCGCAC	0.0838
CGCTAAAA	0.0305
AATGACAT	0.316
TAAAGTAA	0.211
CATTGAAC	0.222
ACCTCAAG	-0.0467
CTTGACCC	0.00083
GTTCTATA	0.141
AGATCAGG	-0.156
AGCGTCAC	-0.209
CTTCATGC	-0.196
GAGTCGAA	-0.158
ATGATTCC	0.0379
CGCATATA	0.191
CCCCCCTA	-0.311
GATATTCC	-0.216
GGCGCGTA	0.255

Sequence	PBM E-score
TATGCACA	0.0299
TGGGATAA	-0.0252
ACTTTACC	0.151
TCCTAGGA	-0.161
ATCGGTCC	-0.237
CCTGATAG	-0.115
AGGCTTGC	-0.0658
GTCTCGGA	-0.235
AGAGCTCG	0.00185
CTTCAGGA	-0.163
AGTCAAAA	0.0605
ACACTTCA	0.127
CCAGCATA	-0.125
CTGGAAAA	-0.0326
CTAGTTAA	0.254
CTGCGGAC	0.0177
ACTGCAGA	-0.138
GGGTCCAC	-0.29
AACTCGGC	0.0254
ACCACAGC	-0.0275
CAGGGGTC	-0.216
CCTCGTCG	-0.159
TGGAGCCA	-0.222
AGATAGGC	-0.179
TACTAAGA	0.03

Sequence	PBM E-score
CGAGTCCG	-0.0403
CGACAGAG	-0.185
AAGACTGG	0.00969
GGAGCAGA	-0.191
AGAAGGTC	0.00402
GCCGAGGA	-0.0918
GAGGTGGA	-0.206
CGCGTAGA	0.359
AGAAGTAT	0.0902
ACCGAAGG	-0.206
AGCACGGG	-0.19
ACGTGCCG	0.113
CAATAGAG	-0.159
CATACCTA	0.0542
TCGTGACA	-0.00677
CCCCCGGG	-0.227
GGCTGTGA	-0.0826
GAGCAACC	-0.0516
ATTGAATA	0.233
ATTAGACG	-0.0757
CGAACGGC	-0.221
ATTATGAG	-0.0203
ATCCACAG	-0.178
AAAGTTGT	0.163
AACGAGGC	0.0571

Sequence	PBM E-score
AGTAGGGG	-0.302
AGTCTTCA	-0.143
GATTGCCA	-0.337
AACCAAAT	0.0969
CTGCGTTA	0.226
GCATGACA	0.188
CTTCGGCC	-0.171
ATAGACAT	0.15
GGAGACCC	-0.133
CGGCTGCC	-0.142
ACGGGCCG	0.0403
AGGATGTG	-0.00432
GATTTAGC	-0.196
TCCAGTCA	-0.168
ATTTACTC	0.301
TAAACCAA	0.239
AGCGTAAT	0.278
AGGTCGGA	-0.164
GCCCTTCA	-0.0954
TGCTTAAA	0.105
CATGTATC	0.405
CCAACGGG	-0.227
CGGTATCA	0.0147
GACGTCCC	-0.0971
AGAACATG	0.36

Sequence	PBM E-score
ACACAGGT	0.261
ATAAGTAG	0.099
AGTGGGAC	-0.101
AGGTGGCC	-0.226
CACAAGGG	-0.0508
ATGCGAAA	0.0514
CTTATCTA	0.136
AGATGCCA	-0.254
GGCCCGCA	-0.209
CCTTCCAG	-0.286
AATGAAGA	0.0315
CCATGACC	-0.348
AGAGCGTG	0.071
AGCCGCGC	-0.171
CCTTGACG	-0.164
AATTACGA	0.338
GGTCTCCA	-0.145
GAGTCTTA	-0.208
ATGTCATA	0.311
CACACCAA	0.178
GCCACCAA	-0.214
GTTCTAGA	-0.00839
TCGTCGAA	0.148
AGCTTTTG	0.0638
CTGCTCCA	-0.0373

Sequence	PBM E-score
TATTTTCA	0.143
ACTCGTCG	-0.0933
TCTGGGAA	-0.114
AGCTACCT	0.122
AATCGACA	0.255
ATTGCGAG	-0.141
CCTAGTTC	-0.153
AAGTATAG	-0.192
CAATGCGG	-0.0244
AGTACAAC	0.0989
GGACACAC	-0.0238
CACTAGGG	-0.26
CGAGCGCG	-0.0497
ACTCAGGG	-0.0229
CCTATGGC	-0.358
AAACGGTC	-0.117
AGAATGGG	-0.307
GGCCGAAA	-0.141
CTCCTTGC	-0.206
AACGAAGA	0.0512
GCGGTAAC	0.0897
AAGATCGG	-0.222
AAAACGTG	0.19
GCCGCGCA	-0.229
ACTCAGGA	-0.0372

Sequence	PBM E-score
GGCCGCAC	-0.236
TCGTAACA	0.246
GATGTAAA	0.433
AATCCCGT	0.107
ATTACGGA	0.144
GGAAAAGA	-0.11
AGGATCTA	-0.194
CCCTTAGC	-0.314
CACTAAAA	0.183
CGTTAAAC	0.278
TATGATCA	0.0587
GATCCGAA	-0.187
AGAGGTAA	0.0281
AGGGAAAC	-0.19
ATGGAACA	-0.00034
AAAGGTAA	0.154
ATAACAAG	0.352
CCTACAGG	-0.246
CCAGCCCG	-0.378
TCTTTCCA	-0.189
CTCCGGAA	-0.159
ACTATCCG	0.0341
